From article PMC7819943, “Rice protein-binding microarrays: a tool to detect cis-acting elements near promoter regions in rice”
Some of the results follow.

These sequences were tested against T1, OsWOX13 (Oryza sativa, UniProt Q5QMM3 1-267) (assay: protein-binding microarray (RPBM); PBS, 2% BSA, 51.3 ng/ul salmon testes DNA, 50 uM zinc acetate, 200 nM TF, 25 C, 1 h; high values mean tight binding). Conditions: protein: recombinant; tags: N-terminal polyhistidine and DsRed monomer fusion (pET32a); label: CyDye5-dUTP incorporated in the synthesized complementary strand; 3' TTTTT single-stranded linker to array surface; dsDNA, one strand shown.
T1 sequence: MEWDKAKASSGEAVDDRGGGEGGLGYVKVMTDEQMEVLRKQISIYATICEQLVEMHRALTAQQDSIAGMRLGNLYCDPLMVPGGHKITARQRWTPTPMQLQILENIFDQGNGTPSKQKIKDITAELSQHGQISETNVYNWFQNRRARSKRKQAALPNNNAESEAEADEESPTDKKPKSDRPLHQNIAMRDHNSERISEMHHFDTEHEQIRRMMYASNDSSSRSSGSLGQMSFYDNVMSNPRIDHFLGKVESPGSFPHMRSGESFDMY
How it was run: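 In PBS with 2% BSA, salmon testes DNA and 50 µM zinc acetate, 200 nM protein was incubated on a custom Agilent array at 25 °C for 1 h and then washed off. The array had been made double-stranded by primer extension with Cy5-dUTP and blocked with 2% BSA. The proteins were transcription factors fused N-terminally to polyhistidine and DsRed, expressed in E. coli BL21-CodonPlus and purified on Ni–NTA. The binding signal is per-feature fluorescence intensity (arbitrary units) from an Axon 4000B scanner.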

Row | Sequence | binding signal
1 | AATAAATCAAGTCATGGTCATCATAATGCAATGTCTCAACCGGAGTCACCTAGTGCAG | 3310 fluorescence intensity (a.u.)
2 | GTGCCATATCTGCATTAATTGACCTTAATATTAGTTGGACCGGAGTCACCTAGTGCAG | 8350 fluorescence intensity (a.u.)
3 | ATAATTGGAGGAGTCTATATACCCGGTTTTGTGGTTGGAGCGGAGTCACCTAGTGCAG | 28200 fluorescence intensity (a.u.)
4 | CAACTACTAGTCAATTTAATAACCAATTCATATAATACTTCGGAGTCACCTAGTGCAG | 3360 fluorescence intensity (a.u.)
5 | CTAAATGATATCAATTAAACGGTGTATCAATTCCATAAATCGGAGTCACCTAGTGCAG | 37100 fluorescence intensity (a.u.)
6 | TTGATGATATAATTACATTTCTAGTAATTTATAAATTATCCGGAGTCACCTAGTGCAG | 21500 fluorescence intensity (a.u.)
7 | ATCATGATTGCATGATTGATTGCACATTTGCATCATTTCCCGGAGTCACCTAGTGCAG | 63400 fluorescence intensity (a.u.)
8 | ATCATCTGAATCCAATCAAGACAATAAACTTCTAACCAAACGGAGTCACCTAGTGCAG | 4440 fluorescence intensity (a.u.)
9 | GAAGAGTGATGAGTGATGAGAATTGAGATCCCAATCCTGACGGAGTCACCTAGTGCAG | 5420 fluorescence intensity (a.u.)
10 | TGGTAATTTTATGATTAAATTGACACTAACAAACTTATAGCGGAGTCACCTAGTGCAG | 57200 fluorescence intensity (a.u.)
11 | ACTTTTCTGTCACATCGTTCCAATTTTAACCAAACTTTCACGGAGTCACCTAGTGCAG | 5500 fluorescence intensity (a.u.)
12 | TTGATGATGTAACGTACGGTTGATTAATAATAAATTAGGTCGGAGTCACCTAGTGCAG | 18400 fluorescence intensity (a.u.)
13 | CTTCAATGATTTTGTCGTCATCACCAATGCGGATCATATGCGGAGTCACCTAGTGCAG | 19000 fluorescence intensity (a.u.)
14 | GGTGATTTGTTATAAAATAATGTTTCGTTCACTGCAACATCGGAGTCACCTAGTGCAG | 31000 fluorescence intensity (a.u.)
15 | GCCAAAATAGCCATGATTAGCACTAACCCAGTACTGAAACCGGAGTCACCTAGTGCAG | 9890 fluorescence intensity (a.u.)
16 | ATCGATGTTGCTTGATGGACAGATGTGTTCATCAGTAGAGCGGAGTCACCTAGTGCAG | 3830 fluorescence intensity (a.u.)
17 | ATTATAAATTTACCACTGTCTTGAATCGTTATTATAAAACCGGAGTCACCTAGTGCAG | 7340 fluorescence intensity (a.u.)
18 | GTTGATGGGATTAAATCCCGTTACATCGCCGAATGATAAGCGGAGTCACCTAGTGCAG | 21100 fluorescence intensity (a.u.)
19 | GAGCATGATTACTTAAATATTAGCTAATTCTTTCTTTAAACGGAGTCACCTAGTGCAG | 15500 fluorescence intensity (a.u.)
20 | TCCTGATTGCTTATGTAATTTGGAAGGAACAAAATAATAACGGAGTCACCTAGTGCAG | 9930 fluorescence intensity (a.u.)
21 | CTTAAAATCAACTTTTAAATTAAATTTTAAAATTCAAAGTCGGAGTCACCTAGTGCAG | 7070 fluorescence intensity (a.u.)

Row | Sequence | binding signal
22 | GCTAGTAATTGTCTATACTATTAAACTTGCTCTAAGGGCACGGAGTCACCTAGTGCAG | 14000 fluorescence intensity (a.u.)
23 | ATGATTGAGCCGGGGTCTACGGTACGATTCCGGTACCAACCGGAGTCACCTAGTGCAG | 29400 fluorescence intensity (a.u.)
24 | CGATAACTATTTTCAGTTTATTTTCAGTTTATTTTGTTCTCGGAGTCACCTAGTGCAG | 7650 fluorescence intensity (a.u.)
25 | TGTTAATTTCTCCGTCTCGAAATAAGTAAAGTTTTGTGTTCGGAGTCACCTAGTGCAG | 28400 fluorescence intensity (a.u.)
26 | TAGTTTAATTTTGAGTAAATTTTAGGGTGTTTGGTTGTAGCGGAGTCACCTAGTGCAG | 9810 fluorescence intensity (a.u.)
27 | TTCTGACAAAGTAATCAGTTGGACATTTGGAACTGATTACCGGAGTCACCTAGTGCAG | 8300 fluorescence intensity (a.u.)
28 | ATTAATTACGCGTCACTTGCCCCATAAACGACACCGTCCACGGAGTCACCTAGTGCAG | 23400 fluorescence intensity (a.u.)
29 | CTCTTAATTCCGCACATTAAAATATGTAACCACTTCTATACGGAGTCACCTAGTGCAG | 3590 fluorescence intensity (a.u.)
30 | TTAAAACATAATTACATCACGATTGCACGATATTTACATCCGGAGTCACCTAGTGCAG | 11100 fluorescence intensity (a.u.)
31 | AATTTTGATTAATCTCGTATTGGGTTCTTATATGGAAACTCGGAGTCACCTAGTGCAG | 23800 fluorescence intensity (a.u.)
32 | CAGTAACAATTTAATCACTGTTATATTATTAGAATGAAATCGGAGTCACCTAGTGCAG | 11200 fluorescence intensity (a.u.)
33 | GGGACTCATTTAGATTGCAGACGGACCATAACTAGTCGTGCGGAGTCACCTAGTGCAG | 3730 fluorescence intensity (a.u.)
34 | AAGATTAGTACTAACCAATAACCATAGCCCATAGAGCTCGCGGAGTCACCTAGTGCAG | 5340 fluorescence intensity (a.u.)
35 | AGAATAATTAACCGTAAATGCGAGCAATTATGTCAAGTCTCGGAGTCACCTAGTGCAG | 20800 fluorescence intensity (a.u.)
36 | GGTGGAGGCGGGCGCGGTGGAGGCGGGGAGGAAGGGGAGCCGGAGTCACCTAGTGCAG | 6860 fluorescence intensity (a.u.)
37 | CCTGACAGGAGAATTCCCACAATGTTCAGATAACTACAAACGGAGTCACCTAGTGCAG | 17900 fluorescence intensity (a.u.)
38 | GTTAATTAGAAGTCTTAAGAGATGAAGAAGGGTGGCAATACGGAGTCACCTAGTGCAG | 21400 fluorescence intensity (a.u.)
39 | TTAACTAAATTTATAGTAAAATTTACCAATATCTAAAATACGGAGTCACCTAGTGCAG | 20300 fluorescence intensity (a.u.)
40 | TTACTCCTAATCATCATCAAACGAAGCATCGTTTCCTGTGCGGAGTCACCTAGTGCAG | 4620 fluorescence intensity (a.u.)
41 | AGTGGCAATTTAATCAGTAAACTACATGTCTATAGCTCGCCGGAGTCACCTAGTGCAG | 10200 fluorescence intensity (a.u.)
42 | ACAAAATTTGACGACGAAATCTCTTCGTCACGGGGAGTCGCGGAGTCACCTAGTGCAG | 10900 fluorescence intensity (a.u.)
